Results taken from the RNAGym collection of RNA variant scans (doi:10.7554/elife.90254).
The source gives no read counts; variants with many changes may rest on few reads.

B1: LINE1-mini (parent)
chain: GGCAGAGCUCAACACAGCGUGGCAAAGUGGCUGUGGCUAGACUGCC

Variants of: B1
Test: self-cleavage, relative activity (ratio to wild type); higher = more cleavage; in vitro, sequencing; the parent is a self-cleaving ribozyme

Variant	self-cleavage
C13U A25U G30A	0.03
C13G A26G A39C	0.06
C13G C37G U38G	0.02
C13G U20G G21U U28G	0.01
C13G A25G G36U	0.14
C13G C15A G19A G33C	0.01
C13G G19C U20A	0.08
C13G U20A A25C C31U	0.03
C13G C15A U20C A39C	0.02
C13U A25G G35U A41G	0.08
C13U A24U G30U G36C	0.42
C13U A14U G22C U43C	0.01
C13G C15U A26C U32C U43A	0.02
C13U G17C G19C A26G U34A U43C G44A	0.01
C13G C37U C42G	0.06
C13G C23U G30U A41U	0.09
C13G G17A U28C	0.02
C13G A16G G21C U32G G40U	0
C13G G27U G40U U43C	0.02
C13G A14U A25U U32C	0.07
C13G G21C G29A	0.73
C13U G19C G44A	0.03
C13U A14U C18A G19U G21C G30U C37A	0.13
C13G G17A G22C C23A G33U A39C	0

Variant	self-cleavage
C13G G19U U20G G29C U34A	0.03
C13U A26U A41C	0.07
C13G A16U A24C	0.08
C13U A16C A24U C42U G44A	0.35
C13U G22A A26C	0.1
C13U G17U A25C A39U	0.02
C13U G19U U28A C42U	0.02
C13U G22C G29A G40C	0.08
C13G C18A G30U	0.03
C13G A25C C46A	0.16
C13U G17C U20G C42G	0.01
C13U G19A A24U A39G	0.03
C13U G19U A25U C37U	0.13
C13U G19A C23A A24U G27C G40C U43A	0.04
C13G A14U G27U U34G	0.03
C13U G19A C42U	0.14
C13U A14U A26C G36C	0.06
C13G C18G U28A	0.03
C13G A14C U38A	0
C13G G27U U34G	0.02
C13G U34G C37G	0
C13G A25G A39G	0.03
C13G C18G G22U A26G U43A	0.02
C13U C15A U43G	0.03

Variant	self-cleavage
C13U C15A A16U C18G C37G	0.06
C13U G19C A41U	0.26
C13G C15G U20A G29A C45G	0.02
C13U A16C G19A U20C A25U G36U C46A	0.52
C13U G19U U32G U38G	0.03
C13U A14C U32G G40A	0.07
C13G G33A C37U	0.01
C13G A26G G35U	0.23
C13G A26C G30C	0.05
C13G G27U U28A C37U	0.1
C13G C42G G44A	0
C13U C31A A39U	0.06
C13G G17A G27U G40C	0.03
C13G G19A A25C C31G	0.06
C13G G30A C37U	0.05
C13U G22C U34A U43C	0.03
C13U C23U G27A U32G C45G	0.27
C13U A16U U32G A39G U43A	0.05
C13G G33C G36A U38A	0.01
C13G G21C G30U C42G	0.03
C13U G19A U20C A25C	0.14
C13U G21C G36C	0.05
C13G G17U C18U G29C C42A	0.02
C13G C42A C45A	0.04

Variant	self-cleavage
C13G G17C G33C	0.04
C13U G21C C31U	0.04
C13G C23U G40U C45G	0.08
C13G A16C C23G	0.01
C13U C15U G22A	0.17
C13G G17U A26C	0.04
C13G G19A U38C A39C	0.03
C13U G21A C23U G35U	0.09
C13G A14G C15A G19C G33U C46U	0.07
C13G C18U G22C	0.02
C13G A41U C42A	0.11
C13G C23U G44U	0.03
C13G A14U A16U A25U U28C C31U	0.04
C13U G19C U28C U43G	0.3
C13U G21A A39U	0.14
C13G C31U A41C	0.05
C13G A14U A16G G40U C46A	0.02
C13U G19U U20C A25C G44C	0.01
C13G C15G G22A G35C	0.05
C13G A16C C31U	0.04
C13G G29U G30A G40C U43A	0.04
C13G A16G G35U	0.05
C13G C23A G27U C31G	0.04
C13G U20G G22U U32C U34C C46G	0.02

Variant	self-cleavage
C13U A39C C42G	0.06
C13G G33C G36A	0.03
C13U G19A G30A G33C	0.07
C13U A16G G40A	0.02
C13U A24U G33U C42A C45U	0.02
C13U G22C G35U C46U	0.39
C13G A14C A16G A41U C46G	0.02
C13U C31A C42A U43C	0.04
C13U A16G G44U	0.02
C13U G17U U20C G29C	0.02
C13G A24G G40A C42U C45U	0.02
C13U A24G C46A	0
C13G A16G G17A U34C C45A	0
C13G G29C G30A A39U	0.02
C13U G19U U38A	0.07
C13G C18U G30U	0.01
C13G C15U U32C A39U	0.05
C13U A16U U32A	0.04
C13G A25C U38C	0.01
C13G A25C U38A	0.02
C13G U32C G40U	0.02
C13G G40C C46A	0.07
C13U A16C C45U	0.03
C13U G22A G33U	0.14

Variant	self-cleavage
C13U A16C U43C	0.08
C13G G30U C42A G44U	0.14
C13G G44A C45A	0.05
C13G A24U C45U	0.07
C13U G17U C18G U34A	0.02
C13U C18A G27U	0
C13G A14C G44U	0.02
C13G A14C G44A	0.11
C13G C18U U38G	0.02
C13G C23A U28A C31U U43A	0.02
C13U A25G G35U G44U	0.02
C13U G22C G27A	0.06
C13U A25C U38C G40A	0.03
C13U G21U A25U C31A U32C	0
C13G C15U U34C	0.33
C13U G17C G35C	0.15
C13U C15G G40U	0.13
C13U G17A G33U A39U C46G	0.03
C13U A16U G22U A39G	0.11
C13U A25G A41U C42U	0.08
C13G G36C G44U	0.04
C13G A24C G33A	0.07
C13U C18A G21U A24U	0.08
C13U G17A C37G	0.02

Variant	self-cleavage
C13G C15G A24G	0.03
C13U A24U G36U A39U	0.16
C13U C37A U43C	0.17
C13U C18U G22A	0.1
C13U C18U G21C	0.01
C13U G19A G22A G30C G44C	0.02
C13G A14U C18A G36C	0.02
C13U A14G G22U	0.26
C13G A26C U28G C45U	0.04
C13G A16G A26G G27U C42A G44U	0.01
C13G G21C G35U	1.81
C13U G17C G27U G40C	0.12
C13U C31A G33C C42A G44U	0.03
C13G A14C A26U	0.09
C13G A24U G27C C46A	0.33
C13G G22U U32C	0.14
C13U A14C U32G U34G	0.01
C13G C18U G19A	0.09
C13U A16G G30U C45U C46A	0.02
C13G C23U G40C	0.01
C13G C18A G44A	0.03
C13U G17C A25C	0.11
C13U G17C A25U	0.16
